The list shows a part of the results.

The labels stand for the following.
B1: PhoQ; a variant is named by its letters at X, in order, P23837 (parent)
chain: MKKLLRLFFPLSLRVRFLLATAAVVLVLSLAYGMVALIGYSVSFDKTTFRLLRGESNLFYTLAKWENNKLHVELPENIDKQSPTMTLIYDENGQLLWAQRDVPWLMKMIQPDWLKSNGFHEIEADVNDTSLLLSGDHSIQQQLQEVREDDDDAEMTHSVAVNVYPATSRMPKLTIVVVDTIPVELKSSYMVWSWFIYVLSANLLLVIPLLWVAAWWSLRPIEALAKEVRELEEHNRELLNPATTRELTSLVRNLNRLLKSERERYDKYRTTLTDLTHSLKTPLXXLQXXLRSLRSEKMSVSDAEPVMLEQISRISQQIGYYLHRASMRGGTLLSRELHPVAPLLDNLTSALNKVYQRKGVNISLDISPEISFVGEQNDFVEVMGNVLDNACKYCLEFVEISARQTDEHLYIVVEDDGPGIPLSKREVIFDRGQRVDTLRPGQGVGLAVAREITEQYEGKIVAGESMLGGARMEVIFGRQHSAPKDE

The variants in this assay derive from B1. The assay can be described thus: enrichment ratio after two sorts for PhoP signalling (ratio (wild type AVST 3.29)); higher = more functional. The conditions noted are these: with PhoP (E. coli).
As for AATQ, the enrichment ratio was found to be 7.77.

Consider MITK, for which the enrichment ratio is at most 0.25.

For VYTF, the enrichment ratio is at most 0.25.

On to FNSW, for which the enrichment ratio is at most 0.25.

For FTYS, the enrichment ratio is at most 0.25.

For the variant FGRI, the enrichment ratio was at most 0.25.

On to QFWA, for which the enrichment ratio was at most 0.25.

Turning to STTV, the enrichment ratio is 6.32.

MKCM: the enrichment ratio was at most 0.25.

Take HHTS: the enrichment ratio is at most 0.25.

With KSKC, the enrichment ratio was at most 0.25.

On to GMLN, for which the enrichment ratio is 0.729.

With MHCF, the enrichment ratio is at most 0.25.

Take AVLF: the enrichment ratio stood at 1.97.

Regarding SFKD, the enrichment ratio is at most 0.25.

Consider QNMD, for which the enrichment ratio was at most 0.25.

Take RPMQ: the enrichment ratio is at most 0.25.

As to PQVC, the enrichment ratio is at most 0.25.

Regarding SQMT, the enrichment ratio was 22.7.

As to LKQR, the enrichment ratio was at most 0.25.

Turning to FLMQ, the enrichment ratio was at most 0.25.

Take FQYG: the enrichment ratio is at most 0.25.

Take RNSL: the enrichment ratio was at most 0.25.

Turning to FYIG, the enrichment ratio is at most 0.25.

Consider NNMK, for which the enrichment ratio was at most 0.25.

As to DKNL, the enrichment ratio was at most 0.25.

With VDMY, the enrichment ratio is at most 0.25.

As for GTNN, the enrichment ratio is at most 0.25.

HHEP: the enrichment ratio was at most 0.25.

With NNIV, the enrichment ratio is at most 0.25.

As for HGAQ, the enrichment ratio is at most 0.25.

Turning to EDGL, the enrichment ratio was at most 0.25.

As for KEGT, the enrichment ratio is at most 0.25.

As to STHL, the enrichment ratio is 0.507.

Consider ILKG, for which the enrichment ratio is at most 0.25.

Turning to HMDL, the enrichment ratio is at most 0.25.

As for ADRW, the enrichment ratio was at most 0.25.

Turning to FPNH, the enrichment ratio was at most 0.25.

In the case of MMCI, the enrichment ratio was at most 0.25.

SLAM: the enrichment ratio worked out at 6.76.

Regarding TAFE, the enrichment ratio was at most 0.25.

For GDTV, the enrichment ratio is 13.7.

As for DMID, the enrichment ratio was at most 0.25.

As to GKMT, the enrichment ratio is at most 0.25.

For the variant DRRE, the enrichment ratio is at most 0.25.

With RKFV, the enrichment ratio was at most 0.25.

Regarding VCKR, the enrichment ratio was at most 0.25.

As for PCIY, the enrichment ratio is at most 0.25.

In the case of ARFE, the enrichment ratio is at most 0.25.

MVSW: the enrichment ratio was at most 0.25.

Take TECM: the enrichment ratio was determined as 31.3.

In the case of PHAH, the enrichment ratio was at most 0.25.

On to HRGD, for which the enrichment ratio is at most 0.25.

For IINL, the enrichment ratio was at most 0.25.

On to YEHQ, for which the enrichment ratio is at most 0.25.

In the case of NLKQ, the enrichment ratio is at most 0.25.

SIMS: the enrichment ratio is 12.1.

On to AMFS, for which the enrichment ratio was at most 0.25.

As for TEKC, the enrichment ratio is at most 0.25.

TEQL: the enrichment ratio amounted to 5.48.

With TFAW, the enrichment ratio is at most 0.25.

Take EGAK: the enrichment ratio is at most 0.25.

For EEAG, the enrichment ratio is at most 0.25.

Take EVIR: the enrichment ratio is at most 0.25.

Regarding KNSY, the enrichment ratio was at most 0.25.

For the variant GMTS, the enrichment ratio is at most 0.25.

Consider GPSS, for which the enrichment ratio is at most 0.25.

In the case of VQEG, the enrichment ratio is at most 0.25.

In the case of IHWS, the enrichment ratio was at most 0.25.

Turning to IHEF, the enrichment ratio was at most 0.25.

In the case of GAIQ, the enrichment ratio came to 6.62.

For the variant VGWT, the enrichment ratio amounted to 1.62.

Consider GHEV, for which the enrichment ratio is at most 0.25.

As to QQFQ, the enrichment ratio is at most 0.25.

Regarding GICM, the enrichment ratio was determined as 38.3.

With RNHL, the enrichment ratio is at most 0.25.

For the variant AACP, the enrichment ratio was at most 0.25.

On to WEPT, for which the enrichment ratio is at most 0.25.

For the variant NADG, the enrichment ratio is at most 0.25.

As for GMSP, the enrichment ratio is at most 0.25.

Turning to SACA, the enrichment ratio amounted to 9.67.

As to DTSR, the enrichment ratio is at most 0.25.

For the variant MSEA, the enrichment ratio is at most 0.25.

Take AFAI: the enrichment ratio was at most 0.25.

WAWN: the enrichment ratio was at most 0.25.

As to QIKG, the enrichment ratio is at most 0.25.

Regarding SHLP, the enrichment ratio is at most 0.25.

For the variant KQPS, the enrichment ratio is at most 0.25.

QFKA: the enrichment ratio was at most 0.25.

As for DYTR, the enrichment ratio was at most 0.25.

Regarding KGLK, the enrichment ratio was at most 0.25.

On to YSVK, for which the enrichment ratio was at most 0.25.

For DGYQ, the enrichment ratio is at most 0.25.

As to VSCE, the enrichment ratio is at most 0.25.

As to YWHR, the enrichment ratio was at most 0.25.

For the variant QVMV, the enrichment ratio was at most 0.25.

As for KVCR, the enrichment ratio was at most 0.25.

Take TPNA: the enrichment ratio was at most 0.25.

As to DIGG, the enrichment ratio is at most 0.25.

LEAF: the enrichment ratio is at most 0.25.

Turning to KMAT, the enrichment ratio was at most 0.25.

As to IWHV, the enrichment ratio is at most 0.25.

On to EIMN, for which the enrichment ratio is at most 0.25.

On to GYPY, for which the enrichment ratio is at most 0.25.

On to GCSF, for which the enrichment ratio turned out to be 5.32.

Turning to MLDC, the enrichment ratio is at most 0.25.

In the case of VTSI, the enrichment ratio stood at 2.17.

For the variant EQNV, the enrichment ratio is at most 0.25.

Take SRYV: the enrichment ratio is at most 0.25.

In the case of AYKV, the enrichment ratio was at most 0.25.

For the variant NQGC, the enrichment ratio was at most 0.25.

Regarding AVNH, the enrichment ratio was at most 0.25.

Consider TERW, for which the enrichment ratio was at most 0.25.

Regarding IRGI, the enrichment ratio was at most 0.25.

Turning to MAKD, the enrichment ratio is at most 0.25.

As for LKNN, the enrichment ratio is at most 0.25.

As for TVMC, the enrichment ratio came to 5.63.

In the case of NEVN, the enrichment ratio was at most 0.25.

For CTFH, the enrichment ratio was at most 0.25.

TRTW: the enrichment ratio is at most 0.25.

In the case of HTPI, the enrichment ratio was at most 0.25.

With ISTV, the enrichment ratio amounted to 0.91.

On to QIDR, for which the enrichment ratio is at most 0.25.

For the variant WNYL, the enrichment ratio was at most 0.25.

MDPP: the enrichment ratio is at most 0.25.

Regarding DSWD, the enrichment ratio was at most 0.25.

As for MFTH, the enrichment ratio is at most 0.25.

Take SELL: the enrichment ratio was determined as 16.3.

Turning to PCQI, the enrichment ratio was at most 0.25.

Consider PGGI, for which the enrichment ratio was at most 0.25.

As for GGRH, the enrichment ratio is at most 0.25.

In the case of FPGC, the enrichment ratio was at most 0.25.

Take RECL: the enrichment ratio was at most 0.25.

On to YQDI, for which the enrichment ratio is at most 0.25.

For PMIN, the enrichment ratio is at most 0.25.

On to TMQI, for which the enrichment ratio was determined as 12.3.

Take LQSA: the enrichment ratio was at most 0.25.

Turning to VSNY, the enrichment ratio is at most 0.25.

As to YNCG, the enrichment ratio is at most 0.25.

Consider SSLD, for which the enrichment ratio is 8.94.

As to STHQ, the enrichment ratio is at most 0.25.

For the variant FSFY, the enrichment ratio was at most 0.25.

As for PITM, the enrichment ratio is at most 0.25.

With PGAF, the enrichment ratio was at most 0.25.

For the variant DWWL, the enrichment ratio was at most 0.25.

Take RMRP: the enrichment ratio is at most 0.25.

For RSYH, the enrichment ratio was at most 0.25.

In the case of RDIV, the enrichment ratio is at most 0.25.

Regarding TAQR, the enrichment ratio was at most 0.25.

For NITM, the enrichment ratio was at most 0.25.

As to VANM, the enrichment ratio is at most 0.25.

On to FRGC, for which the enrichment ratio was at most 0.25.

Regarding LAQV, the enrichment ratio is at most 0.25.

These data come from a collection of fitness landscapes (doi:10.1126/science.1257360).
